About 230 (0.21%) of roughly 110,000 compounds showed an effect of 50% or more. Some of the results follow.
target: DPAP1 (Plasmodium falciparum, UniProt Q8IIJ9); test: primary screen, percent inhibition; read by cleavage of a fluorogenic dipeptide substrate; higher = more effect of the substance; design: species or system P. falciparum D10 trophozoite lysates; single well
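Also: 30 min substrate incubation versus DMSO and 10 µM JCP410 controls.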

Sequence of DPAP1 (Q8IIJ9 whole entry, looked up): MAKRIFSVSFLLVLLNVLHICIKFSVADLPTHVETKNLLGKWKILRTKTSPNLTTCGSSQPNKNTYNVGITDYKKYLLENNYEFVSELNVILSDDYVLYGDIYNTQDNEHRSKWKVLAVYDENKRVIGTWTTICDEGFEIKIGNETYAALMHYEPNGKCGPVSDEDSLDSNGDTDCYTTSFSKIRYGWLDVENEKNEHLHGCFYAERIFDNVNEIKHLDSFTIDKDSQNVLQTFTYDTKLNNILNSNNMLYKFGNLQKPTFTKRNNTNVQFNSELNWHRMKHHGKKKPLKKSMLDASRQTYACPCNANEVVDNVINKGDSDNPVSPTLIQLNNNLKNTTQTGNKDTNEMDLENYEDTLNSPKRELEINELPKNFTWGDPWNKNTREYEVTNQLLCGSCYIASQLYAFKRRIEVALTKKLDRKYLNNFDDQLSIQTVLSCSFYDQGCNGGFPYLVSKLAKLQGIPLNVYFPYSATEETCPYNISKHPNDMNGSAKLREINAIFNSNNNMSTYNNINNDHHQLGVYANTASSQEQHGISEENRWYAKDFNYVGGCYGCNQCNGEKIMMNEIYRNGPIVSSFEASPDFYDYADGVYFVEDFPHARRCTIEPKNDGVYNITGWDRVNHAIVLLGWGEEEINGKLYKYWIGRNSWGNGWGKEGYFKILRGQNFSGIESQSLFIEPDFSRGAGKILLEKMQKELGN

Compound	% Inhibition @ 10 uM
Cc1ccc(-c2cc(N)n3nc(-c4ccc(C)cc4)cc3n2)cc1	-2.14%
O=S(=O)(c1ccccc1)N1N=C2CCCCC2C1(O)C(F)(F)F (centres unmarked)	0.722%
Nc1ccc2c(Cl)nn(-c3ncc(C(F)(F)F)cc3Cl)c2c1	1.64%
COc1ccc(C2C(C#N)=C(N)N(c3cccc(C)c3)C3=C2C(=O)CCC3)cc1OC (centres unmarked)	-3.26%
Cc1ccc(Cl)cc1-n1ncc2c(NCCOCCO)ncnc21	1.91%
COc1ccc(OC)c2c1ncn2C	-4.15%
O=C1CC(C(=O)Nc2cccc3ccccc23)C(c2ccccc2)O1 (centres unmarked)	5.53%
Cc1ccc(C2=NS(=O)(=O)N(C)C(C(=O)Nc3cc(C)n(CC(=O)N4CCOCC4)n3)=C2)cc1	2.32%
c1ccc2c(c1)nc(NC1CCCCC1)c1ccccc12	5.73%
O=C(c1ccccc1Br)N1C(=O)c2ccccc2S1(=O)=O	4.06%
O=C(Nc1n[nH]c(-c2ccncc2)n1)c1ccccc1	-5.53%
O=C(/C=C/c1ccccc1)Nc1ccc(F)cc1F	5.03%
CCOc1ccc(CC/N=C2\CC(c3ccccc3)CC(O)=C2C(C)=O)cc1OCC (centres unmarked)	4.19%
COc1cccc(C2C3=C(O)CCCC3=NC3=C2C(=O)CCC3)c1 (centres unmarked)	-1.6%
Cc1cc(OCC(=O)N(Cc2cccc(F)c2)Cc2ccco2)ccc1Cl	2.29%
CCOC(=O)C1=C(C)N(c2ccccc2)C(=O)/C1=C\c1ccc(Cl)c(Cl)c1	-3.77%
COc1cc(S(=O)(=O)N2CCN(c3cccc(Cl)c3)CC2)ccc1Cl	-2.66%
COc1ccc(N(CC(=O)NC2CCCC2)S(=O)(=O)c2ccccc2)cc1	-6.14%
O=C1/C(=C/c2cc(Cl)cc(Br)c2O)Sc2ccccc21	-2.42%
Cc1ccc2cccc(OCC(=O)c3ccc(C)c(C)c3)c2n1	2%
O=C(COCc1cc(-c2ccc3c(c2)OCO3)on1)NC1CCCC1	1.34%
COc1ccc(OC)c(NC(=O)c2ccc(C)o2)c1	3.77%
CCOC(=O)N1CCC(c2cc(O)n(-c3ccccc3)n2)CC1	2.39%
COc1cccc(-c2cc(C(F)(F)F)nc(-n3cccn3)n2)c1	1.82%
CC(C)CNC(=O)c1cc(-c2ccccc2F)no1	-0.613%
Cc1cc(C)c2c(c1)c(=O)c(C(=O)O)cn2C	-2.66%
COc1ccccc1C(=O)NC1CCCCC1	5.26%
Cc1nc2nc(C)c(CCC(=O)NCc3ccc4c(c3)OCO4)c(C)n2n1	-4.1%
c1ccc(OCC2CN3CCOB(OCC3)O2)cc1 (centres unmarked)	-3.98%

Reference: PMC6919601, “Identification of Plasmodium dipeptidyl aminopeptidase allosteric inhibitors by high throughput screening” (PLoS ONE, 2019)
